Data as given in the supplement of paper PMC9446081.
Screen size: about 39,000 compounds; about 220 (0.56%) showed activity. This is one part of the list.

Each compound was assayed on Escherichia coli K-12 BW25113 (assay: relative growth (OD600 normalised to plate interquartile mean) (fraction); higher = less growth inhibition, active = 0.2 or less). Details: 50 µM; LB; incubation time: overnight (16-24 h).
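Further: static incubation at 37 °C against the wild-type strain, values averaged over two biological replicates.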

| SMILES | relative growth |
| --- | --- |
| O=C(C[C@H]1CC[C@H]2[C@@H](COC[C@@H](O)CN2Cc2cc(F)ccc2F)O1)N[C@H]1CCN(Cc2ccccc2)C1 | inactive: 0.997 |
| COCCN1CCO[C@@H]2CN(Cc3cnn(C)c3)C[C@@H]21 | inactive: 0.99 |
| Cc1noc(C)c1S(=O)(=O)Nc1ccc2c(c1)CC(=O)N([C@@H](C)CO)C[C@@H](C)[C@@H](CN(C)S(=O)(=O)c1ccccc1)O2 | inactive: 1.01 |
| O=C(O)c1ccoc1 | inactive: 1.03 |
| O=C(C[C@@H]1CC[C@@H]2[C@H](COC[C@@H](O)CN2C(=O)Nc2cccc(F)c2)O1)NCc1ccccc1Cl | inactive: 0.966 |
| CCS(=O)(=O)N1Cc2nccn2C[C@H](Cn2ncccc2=O)C1 | inactive: 1.01 |
| CC(C)NC(=O)N(C)C[C@H]1OCCCC[C@@H](C)Oc2ccc(NS(C)(=O)=O)cc2C(=O)N([C@@H](C)CO)C[C@@H]1C | inactive: 0.968 |
| O=C(C[C@@H]1CC[C@H]2[C@@H](COC[C@H](O)CN2C(=O)Nc2ccc(Cl)cc2)O1)NC1Cc2ccccc2C1 | inactive: 0.923 |
| CO[C@@H]1CN(C)C(=O)c2cc(NS(C)(=O)=O)ccc2OC[C@@H](C)N(S(C)(=O)=O)C[C@@H]1C | inactive: 1.04 |
| C[C@@H]1CN([C@H](C)CO)C(=O)Cc2cc(NC(=O)Nc3ccc(F)cc3)ccc2O[C@H]1CN(C)C(=O)Nc1ccc(C(F)(F)F)cc1 | inactive: 0.993 |
| C[C@@H]1CN([C@@H](C)CO)C(=O)c2cccc(NS(=O)(=O)c3ccc(F)cc3)c2O[C@H]1CN(C)C(=O)Nc1cccc2ccccc12 | inactive: 0.983 |
| C[C@H](CO)N1C[C@H](C)[C@H](CN(C)S(=O)(=O)c2cn(C)cn2)Oc2ccc(NS(=O)(=O)c3ccc(F)cc3)cc2C1=O | inactive: 1.01 |
| C#CC1(O)CCC2C3CCC4=CC(=O)CCC4C3CCC21C (configuration not stated) | inactive: 1.06 |
| COc1ccc(S(=O)(=O)Nc2ccc3c(c2)C(=O)N([C@@H](C)CO)C[C@@H](C)[C@@H](CN(C)S(=O)(=O)c2ccc(F)cc2)O3)cc1 | inactive: 1.02 |
| C[C@@H]1CN([C@@H](C)CO)C(=O)c2cc(NC(=O)Nc3ccc(F)cc3)ccc2O[C@@H](C)CCCCO[C@@H]1CN(C)S(=O)(=O)c1ccccc1 | inactive: 1.03 |
| Cc1oc2ccccc2c1-c1csc(-c2ccccc2)n1 | inactive: 1.02 |
| C[C@@H]1CN([C@H](C)CO)C(=O)c2cccc(NC(=O)Nc3ccc(F)cc3)c2O[C@H]1CN(C)S(C)(=O)=O | inactive: 0.978 |
| Cc1cccc2ccccc12 | inactive: 0.998 |
| CN1C(=O)CCC1c1cccnc1 (configuration not stated) | inactive: 1 |
| COc1cccc(S(=O)(=O)N[C@H]2CC[C@H](CCn3cc(-c4ccccc4OC)nn3)O[C@@H]2CO)c1 | inactive: 1.01 |
| C[C@H](CO)N1C[C@H](C)[C@@H](CN(C)Cc2ccccc2)OCCCC[C@H](C)Oc2ccc(NC(=O)Cc3ccccc3)cc2C1=O | inactive: 1.01 |

| SMILES | relative growth |
| --- | --- |
| C[C@@H]1CN([C@H](C)CO)C(=O)Cc2cc(NC(=O)Nc3ccc(C(F)(F)F)cc3)ccc2O[C@H]1CN(C)Cc1ccc(C(F)(F)F)cc1 | inactive: 1.06 |
| Cc1noc(C)c1NC(=O)N[C@@H]1C=C[C@H](CC(=O)N2CCN(C)CC2)O[C@H]1CO | inactive: 0.997 |
| C[C@H](CO)N1C[C@H](C)[C@H](CN(C)CC2CCCCC2)Oc2ccc(NC(=O)Cn3cnnn3)cc2CC1=O | inactive: 0.965 |
| C[C@H](NC(=O)C[C@H]1C[C@@H]2c3cc(NC(=O)Nc4ccc(C(F)(F)F)cc4)ccc3O[C@@H]2[C@@H](CO)O1)c1ccccc1 | inactive: 0.982 |
| COc1ccc(S(=O)(=O)Nc2ccc3c(c2)C(=O)N([C@H](C)CO)C[C@H](C)[C@H](CN(C)S(=O)(=O)c2ccc(OC)cc2)O3)cc1 | inactive: 0.995 |
| COc1ccc(CN(C)C[C@H]2Oc3ccc(NC(=O)Cn4cnnn4)cc3C(=O)N([C@H](C)CO)C[C@H]2C)cc1 | inactive: 0.985 |
| Cc1ccc(S(=O)(=O)Nc2ccc3c(c2)C(=O)N([C@H](C)CO)C[C@H](C)[C@@H](CN(C)C(=O)CCC(F)(F)F)OCCCC[C@H](C)O3)cc1 | inactive: 1.02 |
| COC(=O)[C@H](Cc1ccccc1)N1C[C@](C)(OC(C)C)O[C@@H](CCn2cc(COc3ccccc3/C=C(C)/C=C/C(=O)NO)nn2)[C@@H]1/C=C/C1CC1 | inactive: 1.05 |
| C[C@H](CO)N1C[C@H](C)[C@@H](CN(C)Cc2ccncc2)Oc2ccc(NC(=O)Nc3cccc4ccccc34)cc2CC1=O | inactive: 0.922 |
| CCN(CC)CCNc1nc(=O)[nH]nc1C | inactive: 1.02 |
| CCCNC(=O)Nc1ccc2c(c1)C(=O)N(C)C[C@H](OC)[C@H](C)CN(C(=O)C1CCOCC1)[C@@H](C)CO2 | inactive: 0.988 |
| Cc1ccc(S(=O)(=O)Nc2ccc3c(c2)C(=O)N(C)[C@@H]2CC[C@H](CC(=O)NCCc4ccncc4)O[C@@H]2CO3)cc1 | inactive: 0.999 |
| C[C@@H]1CN([C@H](C)CO)C(=O)c2cccc(NC(=O)c3ccc(-c4nccs4)cc3)c2O[C@H]1CN(C)S(=O)(=O)c1cn(C)cn1 | inactive: 0.989 |
| COc1ccc(S(=O)(=O)Nc2cccc3c2O[C@H](CN(C)S(=O)(=O)c2c(C)noc2C)[C@@H](C)CN([C@@H](C)CO)C3=O)cc1 | inactive: 0.931 |
| COc1cccc(C(=O)Nc2ccc3c(c2)C(=O)N(C)[C@@H]2CC[C@@H](CC(=O)NCC(F)(F)F)O[C@@H]2CO3)c1 | inactive: 1.01 |
| C[C@H](CO)N1C[C@H](C)[C@@H](CN(C)S(=O)(=O)c2ccc(Cl)cc2)OCCCC[C@H](C)Oc2ccc(NC(=O)NC3CCCCC3)cc2C1=O | inactive: 1.04 |
| CC(C)C[C@@H]1NC(=O)[C@@H]2C[C@H](C(=O)NCCCCCNC(=O)CS)[C@H](c3ccc(O)cc3)N2C1=O | inactive: 0.813 |
| COc1ccc(NC(=O)N(C)C[C@@H]2OCCCC[C@@H](C)Oc3ccc(NC(=O)Nc4ccc(F)cc4)cc3C(=O)N([C@H](C)CO)C[C@@H]2C)cc1 | inactive: 1.05 |
| CN(C)CC(=O)N[C@@H]1CC[C@H](CCn2cc(CN(C)C)nn2)O[C@@H]1CO | inactive: 1.01 |
| C[C@@H]1CN([C@H](C)CO)C(=O)c2cc(NC(=O)NC3CCCCC3)ccc2O[C@H]1CN(C)C(=O)Nc1cccc2ccccc12 | inactive: 0.988 |
| COc1ccc(NC(=O)N(C)C[C@@H]2OCCCC[C@H](C)Oc3ccc(NC(=O)Nc4ccc5c(c4)OCO5)cc3C(=O)N([C@@H](C)CO)C[C@@H]2C)cc1 | inactive: 1.01 |

| SMILES | relative growth |
| --- | --- |
| C[C@H]1CN([C@@H](C)CO)C(=O)Cc2cc(NC(=O)Cc3cn(C)c4ccccc34)ccc2O[C@H]1CN(C)Cc1ccc(C(F)(F)F)cc1 | inactive: 1.05 |
| CS(=O)(=O)Nc1ccc2c(c1)C(=O)NC2=O | inactive: 1.01 |
| COc1ccccc1C#Cc1cnc2c(c1)C(=O)N([C@H](C)CO)C[C@H](C)[C@@H](CN(C)C(=O)CC1CC1)O2 | inactive: 0.968 |
| C[C@H](CO)N1C[C@H](C)[C@H](CN(C)S(=O)(=O)c2cn(C)cn2)Oc2ccc(NC(=O)C3CC3)cc2C1=O | inactive: 0.99 |
| C[C@H](CO)N1C[C@H](C)[C@H](CN(C)C(=O)Nc2ccc(F)cc2)OCCCC[C@H](C)Oc2ccc(NC(=O)C3CCCC3)cc2C1=O | inactive: 0.992 |
| C[C@@H]1CN([C@H](C)CO)C(=O)Cc2cc(NC(=O)Cc3cn(C)c4ccccc34)ccc2O[C@@H]1CN(C)C(=O)Nc1ccc(C(F)(F)F)cc1 | inactive: 1 |
| Cc1ccc2c(c1)/C(=C/c1ccncc1)c1cc3ccccc3nc1-2 | inactive: 1.03 |
| C[C@@H]1CN([C@@H](C)CO)C(=O)c2cc(NC(=O)c3ccccc3)ccc2O[C@@H](C)CCCCO[C@H]1CN(C)CC1CCCCC1 | inactive: 0.988 |
| Cn1nnc2c(N3CCC(O)CC3)ncnc21 | inactive: 1.01 |
| O=C(CCCCCCC(=O)Nc1ccccc1)NO | inactive: 1.18 |
| O=C(C[C@@H]1CC[C@H]2[C@@H](COC[C@@H](O)CN2S(=O)(=O)c2ccc(Cl)cc2)O1)NCC1CCCCC1 | inactive: 0.804 |
| C[C@@H]1CCCCO[C@H](CN(C)C(=O)C2CCCCC2)[C@H](C)CN([C@H](C)CO)C(=O)c2cc(NC(=O)NC3CCCCC3)ccc2O1 | inactive: 1.02 |
| Cc1noc(C)c1NC(=O)N(C)C[C@H]1Oc2c(NS(=O)(=O)c3cn(C)cn3)cccc2C(=O)N([C@@H](C)CO)C[C@H]1C | inactive: 0.962 |
| CCCC[C@@H](C#N)c1ccccn1 | inactive: 0.971 |
| C[C@@H]1CCCCO[C@@H](CN(C)S(=O)(=O)c2ccc(Cl)cc2)[C@@H](C)CN([C@H](C)CO)C(=O)c2cc(NC(=O)NC3CCCCC3)ccc2O1 | inactive: 0.986 |
| O=C(O)[C@H](O)[C@H](O)[C@H](O)[C@H](O)CO | inactive: 1.01 |
| Cc1ccc(S(=O)(=O)N(C)C[C@H]2OCCCC[C@H](C)Oc3ccc(NC(=O)Cc4ccccc4)cc3C(=O)N([C@H](C)CO)C[C@@H]2C)cc1 | inactive: 1.03 |
| O=c1ccn([C@@H]2O[C@H](COP(=O)(O)OP(=O)(O)OP(=O)(O)OP(=O)(O)OC[C@H]3O[C@@H](n4ccc(=O)[nH]c4=O)[C@H](O)[C@@H]3O)[C@@H](O)[C@H]2O)c(=O)[nH]1 | inactive: 0.988 |
| C[C@@H]1CN([C@H](C)CO)C(=O)c2cc(C#CCN(C)C)cnc2O[C@H]1CN(C)S(=O)(=O)c1cn(C)cn1 | inactive: 0.983 |
| C[C@H](CO)N1C[C@H](C)[C@H](CN(C)Cc2cccc(C(F)(F)F)c2)Oc2ncc(-c3cccc(F)c3)cc2C1=O | inactive: 1.01 |
